Counter-ions that a name gives are not always drawn. The list shows a part of the results. The data scatter; read single values as rough.
Key:
Experiment in all cases: ALDHbr (CSC) cell proportion score relative to DMSO vehicle (ratio to DMSO); breast (SUM159) / gastric (MKN45) / pancreatic (PANC1) / colon cancer lines; ALDHbr cells have high ALDH activity and are rich in cancer stem cells (CSC); higher = more CSC (ALDHbr) cells remaining
Settings in all cases: 10 µM; 72 h
MKN45 = test system: MKN45
PANC1 = test system: PANC1
SUM159 = test system: SUM159
T84 = test system: T84
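Further: High-content imaging of ALDEFLUOR-stained cells with Hoechst-labelled nuclei in 384-well plates, triplicate wells, scored as Z-score against 0.1% DMSO vehicle, negative meaning fewer ALDHbr cells.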

| Compound | ALDHbr (MKN45) | ALDHbr (PANC1) | ALDHbr (SUM159) | ALDHbr (T84) |
| --- | --- | --- | --- | --- |
| CNC(=O)c1c(I)c(C(=O)NCC(=O)Nc2c(I)c(C(=O)O)c(I)c(C(=O)NCCO)c2I)c(I)c(N(C)C(C)=O)c1I [Ioxaglic acid] | 1.06 | 0.898 | 1.12 | 0.962 |
| N=C(N)NC(=O)Cc1c(Cl)cccc1Cl [Guanfacine hydrochloride] | 0.807 | 0.981 | 1.26 | 1.14 |
| Nc1nc(=O)n([C@@H]2CS[C@H](CO)O2)cc1F [(-)-Emtricitabine] | 0.894 | 0.941 | 1.36 | 0.96 |
| CC1CNc2c(cccc2S(=O)(=O)N[C@@H](CCCNC(=N)N)C(=O)N2CC[C@@H](C)C[C@@H]2C(=O)O)C1 (stereo partly specified) [Argatroban] | 1.06 | 0.874 | 0.804 | 1.04 |
| CCCCN1CCCCC1C(=O)Nc1c(C)cccc1C (stereo unspecified) [Bupivacaine hydrochloride] | 1.08 | 0.882 | 1.04 | 1.07 |
| COC(=O)C1=C(C)NC(C)=C(C(=O)OCCN(C)Cc2ccccc2)C1c1cccc([N+](=O)[O-])c1 (stereo unspecified) [Nicardipine hydrochloride] | 0.944 | 0.67 | 0.596 | 0.746 |
| CCCNC(C)C(=O)Nc1ccccc1C (stereo unspecified) [Prilocaine hydrochloride] | 0.917 | 0.859 | 0.853 | 0.818 |
| O=C1NCN(c2ccccc2)C12CCN(CCCC(c1ccc(F)cc1)c1ccc(F)cc1)CC2 [Fluspirilen] | 0.842 | 1.1 | 0.33 | 0.348 |
| COc1ccc(C(=O)CC(=O)c2ccc(C(C)(C)C)cc2)cc1 [Avobenzone] | 0.65 | 1.15 | 1.03 | 0.873 |

Reference: the supplement of paper PMC11880418
